# Reference: PubChem BioAssay AID493208 (National Center for Advancing Translational Sciences (NCATS), 2011)
# The whole screen tested about 44,000 compounds, of which about 340 (0.77%) were called active. About 5% were inconclusive and are not listed. The call rests on the fitted dose curve; in most records, active means well fitted inhibition curve with a large enough effect; inconclusive means small, poorly fitted or top-dose-only effect; inactive means flat fitted curve, though single readings scatter. Some of the results follow.
# Experiment: Acumen qHTS Assay for Inhibitors of the mTORC1 Signaling Pathway in MEF (Tsc2-/-, p53-/-) Cells: Sytravon;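 further: plate controls were DMSO for no effect and rapamycin for full effect; nearly all actives have a fitted effect of over 50% in size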
# Details: phospho-rpS6 immunofluorescence/PI, 24 h; series mostly up to 38.3 µM; activity change, negative = inhibition: at the top concentration
# How it was run: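 Readout is phospho-S6 Alexa 488 signal normalized to PI per well, reported as % active cells with thresholds set from rapamycin (7.5 nM) and DMSO controls. Cells: Tsc2-/-, p53-/- MEFs, 24 hrs compound at 37 C; PI cell number serves as viability.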
row,SMILES,"activity change, negative = inhibition"
1,Cc1ccc(/C=C/c2onc(C)c2S(=O)(=O)N2CCC(C(=O)NCc3ccc(Cl)cc3)CC2)cc1,inactive: -10.2%
2,CC(NC(=O)c1ccc(N2Cc3ccccc3Oc3ncccc32)s1)c1ccccc1 (stereo not drawn),inactive: 3.72%
3,CCOC(=O)C(C)NC(=O)c1cc2c(=O)[nH]c3ccc(C)cc3c2s1 (stereo not drawn),inactive: -5.49%
4,O=C(NCCc1ccc(Cl)cc1)c1ccc2c(c1)N(Cc1ccc(F)cc1Cl)C(=O)CS2,inactive: -73.4%
5,Cc1c(Cl)cccc1NC(=O)C(=O)NCCc1csc(-c2cccc(F)c2)n1,inactive: 2.65%
6,COc1ccc(NC(=O)c2ccc(-c3cccc(Cl)c3C)o2)cc1,inactive: 16.1%
7,COc1ccc(-c2[nH]c(-c3ccccc3)nc2SCC(=O)Nc2ccc3c(c2)OCO3)cc1,inactive: -16.9%
8,CCn1c(CN2CCCCC2)nc2cc(NC(=O)COc3ccc([N+](=O)[O-])cc3)ccc21,inactive: 0.427%
9,CC(NC(=O)Cc1ccc(NC(=O)N2CCCCc3ccccc32)cc1)c1ccccc1 (stereo not drawn),inactive: 1.81%
10,COc1ccc(-c2nc(CSc3nc4ncccc4[nH]3)c(C)o2)cc1OC,inactive: -2.52%
11,CCN1C(=O)c2ccccc2S(=O)(=O)c2ccc(C(=O)NCc3ccc(F)cc3)cc21,inactive: -8.65%
12,Cc1ccc(CNC(=O)CN2C(=O)COc3ccc(S(=O)(=O)N4CCC(C)CC4)cc32)cc1,inactive: 7.41%
13,CSc1cccc(NC(=O)c2ccc3c(c2)CCCN3S(C)(=O)=O)c1,inactive: -3.12%
14,Cc1ccc(/C=C/C(=O)Nc2ccc(Cl)cc2Cl)cc1,inactive: 2.15%
15,CCCCCCn1c(/C=C/c2ccccc2)nc2ccccc21,inactive: 7.68%
16,COc1ccc(NC(=O)c2ccc3[nH]c(C)cc(=O)c3c2)cc1,inactive: 3.15%
17,Cc1ccc(-n2cc(C(=O)OCc3ccc(Cl)cc3)c3ccccc3c2=O)cc1,inactive: -8.52%
18,Cc1ccc(NC(=O)Cc2coc3c(C)c(C)ccc23)c(C)c1,inactive: 6.29%
19,Cc1ccc(C)c(NC(=O)CN(Cc2ccccc2)S(=O)(=O)c2ccc3nc(C)sc3c2)c1,inactive: 1.28%
20,COC(=O)C1CCN(c2csc3ccc(C)cc3c2=O)CC1,inactive: -8.91%
21,CCN(CCCNC(=O)c1ccc(Sc2ccc(Cl)cc2)c(NC(C)=O)c1)c1cccc(C)c1,inactive: 6.43%
22,CCc1nn(CCCC(=O)NCc2ccc(OC)c(OC)c2)c(=O)c2cc3occc3n12,inactive: 1.55%
23,CN1c2ccccc2-c2nc(SCC(=O)Nc3ccccc3)ncc2S1(=O)=O,inactive: -9.69%
24,COc1cc(C2Oc3nc(SC)nnc3-c3ccccc3N2C(C)=O)cc(Cl)c1OC (stereo not drawn),inactive: 0.707%

row,SMILES,"activity change, negative = inhibition"
1,Cc1ccc(-n2ncc3c(NCc4ccccc4)ncnc32)cc1C,inactive: -20.1%
2,Cc1cc(Br)ccc1NC(=O)c1sc2ncn(Cc3ccccc3Cl)c(=O)c2c1C,inactive: 0.972%
3,O=C(CSc1oc(-c2ccco2)nc1S(=O)(=O)c1ccc(Br)cc1)c1ccc(Cl)cc1,inactive: -7.39%
4,CC1=C(C(=O)Nc2cccnc2)C(c2ccc(F)cc2)n2nc(SCc3ccccc3)nc2N1 (stereo not drawn),inactive: -22.6%
5,CCCNC(=O)Cn1nc(C)c2c(C)n(-c3ccccc3)nc2c1=O,inactive: -0.429%
6,Cc1cccc(NC(=O)CCS(=O)(=O)c2cc(Br)cc3c2N(C(=O)C2CC2)CC3)c1C,inactive: -0.571%
7,CC1CCN(S(=O)(=O)c2cccc(C(=O)N(C)C3(C)CCS(=O)(=O)C3)c2)CC1 (stereo not drawn),inactive: 5.3%
8,COc1cc(OC)c(NC(=O)CSc2nc3ccncc3[nH]2)cc1Cl,inactive: 1.51%
9,CC(NC(=O)C1CCN(C(=O)N2CCOc3ccccc32)CC1)c1ccccc1 (stereo not drawn),inactive: 2.28%
10,CCCCNC(=O)CSc1nc2ccccc2nc1Cc1ccccc1,inactive: -0.721%
11,CC(C)CCNC(=O)c1ccc(NC(=O)N2CCCCc3ccccc32)cc1,inactive: -3.11%
12,Cc1ccc(N2CC(NC(=O)C3CCCC3)CC2=O)cc1 (stereo not drawn),inactive: -0.525%
13,COc1cccc(N2CCN(C(=O)Cn3ncc4c3-c3ccccc3OC4)CC2)c1,inactive: -3.03%
14,CCOc1ccc(Nc2c(S(=O)(=O)c3ccccc3)cnc3ccc(CC)cc23)cc1,inactive: -16.8%
15,Cc1ccc(C(=O)c2cn(CC(=O)Nc3ccc4c(c3)OCCO4)c3nc(C)ccc3c2=O)cc1,inactive: -5.15%
16,CSc1oc(-c2ccc(F)cc2)nc1S(=O)(=O)c1ccc(Br)cc1,inactive: -0.794%
17,CC(C)CC(NC(=O)C1CCC(C)CC1)C(=O)OCC(=O)c1ccc(Cl)cc1 (stereo not drawn),inactive: -3.19%
18,O=C(CSc1nc2ccccc2n1Cc1ccccc1)NCc1ccccc1,inactive: 0%
19,Cc1cc(C)cc(OC(C)C(=O)Nc2nc3c(s2)CCCC3)c1 (stereo not drawn),inactive: -0.853%
20,COc1ccc(NC(=O)c2ccco2)cc1NC(=O)c1ccc(OC(C)C)cc1,inactive: -6.42%
21,CCOC(=O)c1ccc(NC(=O)C2CCCN(c3cnccn3)C2)cc1 (stereo not drawn),inactive: 2.04%
22,COc1cccc(/C=C(\C#N)c2nc3ccccc3c(=O)[nH]2)c1OC,inactive: 1.09%
23,CCCC(C(=O)Nc1cc(C)c(Cl)cc1OC)N1Cc2ccccc2C1=O (stereo not drawn),inactive: 0.632%
24,COc1cc(NC(=O)Cn2cc(S(=O)(=O)N3CCC(C)CC3)c3ccccc3c2=O)cc(OC)c1OC,inactive: 1.47%
